The RNAGym collection of RNA variant scans (doi:10.7554/elife.90254)
The source gives no read counts; variants with many changes may rest on few reads.

B1: LINE1-mini (parent)
chain: GGCAGAGCUCAACACAGCGUGGCAAAGUGGCUGUGGCUAGACUGCC

Variants of: B1
Assay: self-cleavage, relative activity (ratio to wild type); higher = more cleavage; in vitro, sequencing; the parent is a self-cleaving ribozyme

Variant | self-cleavage
G1U C13G C15A | 0.06
G1U C13U A16C G17U | 0.02
G1U C13U A25U G29U G33U G44C | 0.05
G1U C13U C15U U32G C37U | 0.02
G1U C13U C37U U38C | 0.01
G1U C13U G40A | 0.03
G1U C13U U28G | 0.06
G1U C15A G29U | 0.05
G1U C15A G44A | 0.39
G1U C15A U28G | 0.14
G1U C15G A26G | 0.02
G1U C15G A39U C45U | 0.01
G1U C15G C45G | 0.02
G1U C15G G21C A41U | 0.02
G1U C15G G21U | 0.02
G1U C15U C18U A25G G35A G40A | 0.08
G1U C15U G29U G44U | 0.14
G1U C15U G35U G40C | 0.29
G1U C18A A26C U28A C31G | 0.01
G1U C18A G21U | 0.06
G1U C18A G36U A41G | 0.03

Variant | self-cleavage
G1U C18G G19C U28G G33U C42A | 0.01
G1U C18G U20A C31G | 0.01
G1U C18G U32G | 0
G1U C18U G36A C46G | 0.04
G1U C18U U38A C45A | 0.05
G1U C23A G29A U32C A41C | 0.02
G1U C31G C37G | 0.01
G1U C31U G44U | 0.05
G1U C37A A41G | 0.03
G1U C37U U43C | 0.03
G1U C42U C45A | 0.06
G1U G2A A6G A11C A16C G35A A41U C42A | 0.02
G1U G2A C8G | 0.02
G1U G2A G5A G17A C23G | 0.07
G1U G2A G7U C13A U43A | 0.04
G1U G2A G36U C37G U43G | 0.09
G1U G2C A25C C37A | 0.03
G1U G2C C3G C31U G40C | 0.09
G1U G2C C8A G17U U20A | 0.04
G1U G2C G27A G35U | 0.06
G1U G2C G35A | 0.02

Variant | self-cleavage
G1U G2C G44A | 0.05
G1U G2C U9C U28C U32G | 0.03
G1U G2U A6C U28G G35C C42G | 0
G1U G2U A6U C13A C18U U28C | 0.03
G1U G2U A6U G33U G36U G40A | 0.01
G1U G2U C18A C42A | 0.01
G1U G2U C18G A24C G44A | 0.02
G1U G5A G21U A25C | 0.01
G1U G5A G21U C37G | 0
G1U G5A U28A | 0.21
G1U G5C A6C A25C A26U G27U U34G A39C | 0
G1U G5C A14C | 0.01
G1U G5C C10A C18A G40U | 0.02
G1U G5C C13U G19A | 0.03
G1U G5C C15A C18G C23U G35U A39G | 0
G1U G5C C46A | 0.03
G1U G5C G27A | 0.02
G1U G5C G44C | 0.03
G1U G5U C8A C18G C45A | 0.03
G1U G5U C8A G17A G44A | 0.14
G1U G5U C8A U9G U34G U43C | 0.06

Variant | self-cleavage
G1U G5U C15G A25G U43C | 0
G1U G5U C18U C23U | 0.02
G1U G5U G7A G17C | 0.04
G1U G5U G7U U43A | 0.03
G1U G5U G17U C46A | 0.02
G1U G5U G21C | 0.04
G1U G5U G21U | 0.09
G1U G7A A11G A12G C18U G35C G40A | 0
G1U G7A C15U G22U | 0.1
G1U G7A C23U C46A | 0.12
G1U G7C C8A C13U | 0.05
G1U G7C C8A G21C G22A G30C | 0.01
G1U G7C C10A C37U C46A | 0
G1U G7C G36C | 0.06
G1U G7U A11C G33C G40A | 0
G1U G7U A11G | 0.01
G1U G7U A41G C42U | 0.03
G1U G7U C13A C37U | 0.02
G1U G7U C13U | 0.04
G1U G7U C13U A39U | 0.04
G1U G7U C18G | 0.04
